# From the supplement of paper PMC8728848
# Some of the results follow.
# B1: Lmo1413 (Listeria monocytogenes), Q8Y783 (protein)
# chain: MKHAKKSLFTFIIFMTILSITFNPFSAKAAPLMLNLPAPQVDQLYIGDDYITGKLQQEVPMHYPGNAAYVLFNNKQYNITDYTVENDVNFRLKLPKTLEAGDTLNYFTITGNVLDPVAYPGQESYKLAGPFSPIEKANIQVNYVDETNQTLATSDTLSGKLGETYTTSPKAIDGYQVKETPTNATGTYTTNTETIQINYVYEKTAVEGANVSVEYINEATNESIAPTETLSGKIGTTFQAEVKEIDGYELSQVPSNQSGTYTDQTQSVIFKYKKITTPDEVAKDVTVTYKDTKGNQLADPVILKGDIGSTFETEAKSFKGYKLTKTPSNHSSVFTSDSQEVEYVYSKDDAVITPPVTPVNPDKPIINPVKPVNPATSTVPNKNISKKNTTKTVNQTGKTSTALQLPKTGDSENNLPLIIGVSLLISGVYIFTTRRKRVK
# Assays:
# Test in all cases: glycan array binding signal (z-score within array); higher = stronger binding
# Conditions in all cases: glycan notation: IUPAC condensed, linker removed
# [1] = target: Neu5Ac(a2-3)Gal(b1-3)GlcNAc(b1-3)Gal(b1-3)GlcNAc
# Method in brief: (§1)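 From the Consortium for Functional Glycomics database, 3228 arrays were curated, keeping only those whose protein sequence was available. Binding is given as a within-array Z-score averaged across arrays sharing a protein sequence and across linkers. Negative Z-scores can be read as non-binding.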
# [2] = target: Neu5Ac(a2-3)Gal(b1-3)GlcNAc(b1-3)Gal(b1-4)GlcNAc
# Method in brief: as §1
# [3] = target: Neu5Ac(a2-3)Gal(b1-3)GlcNAc(b1-3)GalNAc
# Method in brief: as §1
# [4] = target: Neu5Ac(a2-3)Gal(b1-3)GlcNAc6S
# Method in brief: as §1
# [5] = target: Neu5Ac(a2-3)Gal(b1-3)[Fuc(a1-4)]GlcNAc
# Method in brief: as §1
# [6] = target: Neu5Ac(a2-3)Gal(b1-3)[Fuc(a1-4)]GlcNAc(b1-3)Gal(b1-3)[Fuc(a1-4)]GlcNAc
# Method in brief: as §1
# [7] = target: Neu5Ac(a2-3)Gal(b1-3)[Fuc(a1-4)]GlcNAc(b1-3)Gal(b1-4)[Fuc(a1-3)]GlcNAc
# Method in brief: as §1
# [8] = target: Neu5Ac(a2-3)Gal(b1-3)[Neu5Ac(a2-3)Gal(b1-4)]GlcNAc
# Method in brief: as §1
# [9] = target: Neu5Ac(a2-3)Gal(b1-3)[Neu5Ac(a2-6)]GalNAc
# Method in brief: as §1
# [10] = target: Neu5Ac(a2-3)Gal(b1-4)Glc
# Method in brief: as §1
# [11] = target: Neu5Ac(a2-3)Gal(b1-4)GlcNAc
# Method in brief: as §1
# [12] = target: Neu5Ac(a2-3)Gal(b1-4)GlcNAc(b1-2)Man(a1-3)[GlcNAc(b1-2)Man(b1-4)GlcNAc(b1-2)Man(a1-6)]Man(b1-4)GlcNAc(b1-4)GlcNAc
# Method in brief: as §1
# [13] = target: Neu5Ac(a2-3)Gal(b1-4)GlcNAc(b1-2)Man(a1-3)[Neu5Ac(a2-6)Gal(b1-4)GlcNAc(b1-2)Man(a1-6)]Man(b1-4)GlcNAc(b1-4)GlcNAc
# Method in brief: as §1
# [14] = target: Neu5Ac(a2-3)Gal(b1-4)GlcNAc(b1-3)Gal(b1-3)GlcNAc
# Method in brief: as §1
# [15] = target: Neu5Ac(a2-3)Gal(b1-4)GlcNAc(b1-3)Gal(b1-4)GlcNAc
# Method in brief: as §1
# [16] = target: Neu5Ac(a2-3)Gal(b1-4)GlcNAc(b1-3)Gal(b1-4)GlcNAc(b1-3)Gal(b1-4)GlcNAc
# Method in brief: as §1
# [17] = target: Neu5Ac(a2-3)Gal(b1-4)GlcNAc(b1-3)Gal(b1-4)[Fuc(a1-3)]GlcNAc
# Method in brief: as §1
# [18] = target: Neu5Ac(a2-3)Gal(b1-4)GlcNAc(b1-3)GalNAc
# Method in brief: as §1
# [19] = target: Neu5Ac(a2-3)Gal(b1-4)GlcNAc(b1-6)[Gal(b1-3)]GalNAc
# Method in brief: as §1
# [20] = target: Neu5Ac(a2-3)Gal(b1-4)GlcNAc(b1-6)[Neu5Ac(a2-3)Gal(b1-3)]GalNAc
# Method in brief: as §1
# [21] = target: Neu5Ac(a2-3)Gal(b1-4)GlcNAc6S
# Method in brief: as §1
# [22] = target: Neu5Ac(a2-3)Gal(b1-4)[Fuc(a1-3)]GlcNAc
# Method in brief: as §1
# [23] = target: Neu5Ac(a2-3)Gal(b1-4)[Fuc(a1-3)]GlcNAc(b1-3)Gal
# Method in brief: as §1
# [24] = target: Neu5Ac(a2-3)Gal(b1-4)[Fuc(a1-3)]GlcNAc(b1-3)Gal(b1-4)GlcNAc
# Method in brief: as §1
# [25] = target: Neu5Ac(a2-3)Gal(b1-4)[Fuc(a1-3)]GlcNAc(b1-3)Gal(b1-4)[Fuc(a1-3)]GlcNAc(b1-3)Gal(b1-4)[Fuc(a1-3)]GlcNAc
# Method in brief: as §1
# [26] = target: Neu5Ac(a2-3)Gal(b1-4)[Fuc(a1-3)]GlcNAc(b1-3)GalNAc
# Method in brief: as §1
# [27] = target: Neu5Ac(a2-3)Gal(b1-4)[Fuc(a1-3)]GlcNAc(b1-6)[Gal(b1-3)]GalNAc
# Method in brief: as §1
# [28] = target: Neu5Ac(a2-3)Gal(b1-4)[Fuc(a1-3)]GlcNAc(b1-6)[Neu5Ac(a2-3)Gal(b1-3)]GalNAc
# Method in brief: as §1
# [29] = target: Neu5Ac(a2-3)Gal(b1-4)[Fuc(a1-3)]GlcNAc6S
# Method in brief: as §1
# [30] = target: Neu5Ac(a2-3)Gal6S(b1-4)GlcNAc
# Method in brief: as §1
# [31] = target: Neu5Ac(a2-3)Gal6S(b1-4)[Fuc(a1-3)]GlcNAc
# Method in brief: as §1
# [32] = target: Neu5Ac(a2-3)GalNAc
# Method in brief: as §1
# [33] = target: Neu5Ac(a2-3)GalNAc(b1-4)GlcNAc
# Method in brief: as §1
# [34] = target: Neu5Ac(a2-3)[GalNAc(b1-4)]Gal(b1-4)Glc
# Method in brief: as §1
# [35] = target: Neu5Ac(a2-3)[GalNAc(b1-4)]Gal(b1-4)GlcNAc
# Method in brief: as §1
# [36] = target: Neu5Ac(a2-3)[GalNAc(b1-4)]Gal(b1-4)GlcNAc(b1-3)GalNAc
# Method in brief: as §1
# [37] = target: Neu5Ac(a2-3)[Neu5Ac(a2-6)]GalNAc
# Method in brief: as §1
# [38] = target: Neu5Ac(a2-6)Gal
# Method in brief: as §1
# [39] = target: Neu5Ac(a2-6)Gal(b1-4)Glc
# Method in brief: as §1
# [40] = target: Neu5Ac(a2-6)Gal(b1-4)GlcNAc
# Method in brief: as §1
binder,measurement,setting,value
B1,glycan array binding signal (z-score),[1],-0.026
same,glycan array binding signal (z-score),[2],-0.224
same,glycan array binding signal (z-score),[3],-0.215
same,glycan array binding signal (z-score),[4],-0.152
same,glycan array binding signal (z-score),[5],-0.272
same,glycan array binding signal (z-score),[6],0.433
same,glycan array binding signal (z-score),[7],0.39
same,glycan array binding signal (z-score),[8],-0.256
same,glycan array binding signal (z-score),[9],-0.143
same,glycan array binding signal (z-score),[10],-0.223
same,glycan array binding signal (z-score),[11],-0.234
same,glycan array binding signal (z-score),[12],-0.266
same,glycan array binding signal (z-score),[13],-0.29
same,glycan array binding signal (z-score),[14],-0.241
same,glycan array binding signal (z-score),[15],-0.13
same,glycan array binding signal (z-score),[16],-0.095
same,glycan array binding signal (z-score),[17],-0.272
same,glycan array binding signal (z-score),[18],-0.243
same,glycan array binding signal (z-score),[19],-0.012
same,glycan array binding signal (z-score),[20],-0.265
same,glycan array binding signal (z-score),[21],-0.177
same,glycan array binding signal (z-score),[22],-0.268
same,glycan array binding signal (z-score),[23],-0.285
same,glycan array binding signal (z-score),[24],-0.173
same,glycan array binding signal (z-score),[25],0.379
same,glycan array binding signal (z-score),[26],-0.01
same,glycan array binding signal (z-score),[27],-0.202
same,glycan array binding signal (z-score),[28],-0.151
same,glycan array binding signal (z-score),[29],-0.264
same,glycan array binding signal (z-score),[30],-0.254
same,glycan array binding signal (z-score),[31],-0.286
same,glycan array binding signal (z-score),[32],-0.182
same,glycan array binding signal (z-score),[33],-0.107
same,glycan array binding signal (z-score),[34],-0.248
same,glycan array binding signal (z-score),[35],-0.22
same,glycan array binding signal (z-score),[36],-0.163
same,glycan array binding signal (z-score),[37],-0.27
same,glycan array binding signal (z-score),[38],-0.163
same,glycan array binding signal (z-score),[39],-0.179
same,glycan array binding signal (z-score),[40],-0.258
